Laboratory results as given in PubChem BioAssay (NCATS).
Where “and” joins values, the source holds several entries; their conditions need not be identical. Equal values may be shown once. The shares of active, inactive and inconclusive entries below differ from those in the screen. For part of these data: A potency beside an inconclusive call is a rough fit, not a confirmed value. More than one record can exist for a structure, and the calls need not agree. Calls of active or inactive are those of the source. Calls follow the shape of the dose curve; as a rule, active = well fitted curve in the direction sought with a large enough effect; inconclusive = small, poorly fitted or top-dose-only effect, or another doubt; inactive = no such curve, though single readings can be large; an effect the other way counts as inactive or inconclusive.

How the values were obtained:
[1] = tested on: CRL-7250; assay: Cytotoxic Profiling of Annotated Libraries Using Quantitative High-Throughput Screening (AID 1296008); settings: Five cell lines viability, CellTiter-Glo ATP luminescence, 48-72 h; max response: stronger effect = lower value; also: nearly all actives have a fitted effect of over 60% in size; as to max response: % is scaled to controls: 0 for no effect and ±100 for the full control effect
Outline: (§1)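 Compounds were pin-transferred onto cells and incubated 48 or 72 hr at 37 degree Celsius, 95% humidity. CellTiter-Glo was added, plates sat 10 min at room temperature, then ATP-coupled luminescence was imaged as the viability read-out.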

[2] = tested on: HEK293; assay: as above; settings: Five cell lines viability, CellTiter-Glo ATP luminescence, 48-72 h; max response: stronger effect = lower value
Outline: as §1

[3] = tested on: HaCat; assay: as above; settings: Five cell lines viability, CellTiter-Glo ATP luminescence, 48-72 h; max response: stronger effect = lower value
Outline: as §1

[4] = tested on: KB-3-1; assay: as above; settings: Five cell lines viability, CellTiter-Glo ATP luminescence, 48-72 h; max response: stronger effect = lower value
Outline: as §1

[5] = tested on: MKL-1; assay: qHTS assay to identify novel small-molecules to repurpose for Merkel cell carcinoma treatment (AID 1296009); settings: MCC and control cell lines, CellTiter-Glo viability, 72 h; series mostly up to 46 µM; also: nearly all actives have a fitted effect of over 60% in size
Outline: (§2)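 qHTS format: cells treated with library compounds in DMSO across 8 (NPC) or 11 (MIPE) concentrations. Readout after 72 hr at 37 degree celsius was CellTiter-Glo luminescence.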

[6] = tested on: MKL-2; assay: as above; settings: MCC and control cell lines, CellTiter-Glo viability, 72 h; series mostly up to 46 µM
Outline: as §2

[7] = tested on: UISO; assay: as above; settings: MCC and control cell lines, CellTiter-Glo viability, 72 h; series mostly up to 46 µM
Outline: as §2

[8] = tested on: WaGa; assay: as above; settings: MCC and control cell lines, CellTiter-Glo viability, 72 h; series mostly up to 46 µM
Outline: as §2

[9] = qHTS assay to identify inhibitors of the type 1 interferon - major histocompatibility complex class I in skeletal muscle: Counter screen cell viability and HiBit confirmation (AID 1347412); settings: iHSKM muscle cells + IFN-b, HiBiT or CellTiter-Glo, 24 h; also: nearly all actives have a fitted effect of over 60% in size; as to activity change, negative = inhibition: % is scaled to controls: 0 for no effect and ±100 for the full control effect
Outline: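 HLA-B*08:01–HiBiT knock-in immortalized human myoblasts (C25cl48) stimulated with 4.0 ng/ml human IFN-beta and dosed with compound in a 12-point 1:3 titration (top final 46 uM). After 24 hrs at 37 C, HiBiT lytic luminescence or CellTiter Glo ATP read out.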

[10] = tested on: C33A; assay: Primary qHTS to identify gynecologic anti-cancer compounds using libraries of approved drugs and bioactive compounds (AID 1345084); settings: Gynecologic cancer cell panel viability, ATPlite luminescence, 48 h; series mostly up to 57.5 µM; also: nearly all actives have a fitted effect of over 55% in size; as to activity change, negative = cytotoxicity: % is scaled to controls: 0 for no effect and ±100 for the full control effect
Outline: (§3)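 Cytotoxicity screen measuring ATP content by luciferase luminescence. Each compound is applied at five concentrations for 48 h at 37 C with 5% CO2.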

[11] = tested on: CAOV3; assay: as above; settings: Gynecologic cancer cell panel viability, ATPlite luminescence, 48 h; series mostly up to 57.5 µM
Outline: as §3

[12] = tested on: CASKI; assay: as above; settings: Gynecologic cancer cell panel viability, ATPlite luminescence, 48 h; activity change, negative = cytotoxicity: at 57.5 µM (top of the series)
Outline: as §3

[13] = tested on: Es-2; assay: as above; settings: Gynecologic cancer cell panel viability, ATPlite luminescence, 48 h; series mostly up to 57.5 µM
Outline: as §3

[14] = tested on: NIH3T3; assay: Cytotoxic Profiling of Annotated Libraries Using Quantitative High-Throughput Screening (AID 1296008); settings: Five cell lines viability, CellTiter-Glo ATP luminescence, 48-72 h; max response: stronger effect = lower value; also: nearly all actives have a fitted effect of over 60% in size; as to max response: % is scaled to controls: 0 for no effect and ±100 for the full control effect
Outline: as §1

[15] = tested on: HeLa; assay: Primary qHTS to identify gynecologic anti-cancer compounds using libraries of approved drugs and bioactive compounds (AID 1345084); settings: Gynecologic cancer cell panel viability, ATPlite luminescence, 48 h; series mostly up to 57.5 µM; also: nearly all actives have a fitted effect of over 55% in size
Outline: as §3

[16] = tested on: MCC-26; assay: qHTS assay to identify novel small-molecules to repurpose for Merkel cell carcinoma treatment (AID 1296009); settings: MCC and control cell lines, CellTiter-Glo viability, 72 h; series mostly up to 46 µM; also: nearly all actives have a fitted effect of over 60% in size
Outline: as §2

[17] = tested on: astro; assay: Drug repurposing screens with cells derived from glioblastoma tumor samples (AID 1345199); settings: viability, ATP luminescence, 48 h; activity, negative = cell killing: at 45.9 µM (top of the series); also: nearly all actives have a fitted effect of over 40% in size
Outline: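 Four patient lines of CD133+ GBM neurospheres were screened at several concentrations; hits were retested in those lines plus three slower-growing GBM lines, using 48-hour treatment and ATP-based viability.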
Potency is read from the fitted curve at half-maximal effect; tags tell the direction and shape of the fitted curve.

## C[C@@H]1COC(Nc2ccc3ncnc(Nc4ccc(OCc5nccs5)c(Cl)c4)c3c2)=N1
[1]
  Potency: inconclusive: 37.2 µM [inhibitor, single point]
[2]
  Potency: active: 8.33 µM and active: 16.4 µM
[3]
  Potency: active: 1.66 µM and active: 1.3 µM
[4]
  Potency: inconclusive: 29.1 µM [inhibitor, partial curve, poor fit]
[5]
  Potency: inconclusive: 33.2 µM [inhibitor, single point]
[6]
  Potency: inconclusive: 9.35 µM [inhibitor, single point]
[7]
  Potency: inconclusive: 33.2 µM [inhibitor, single point]
[8]
  Potency: inconclusive: 23.5 µM [inhibitor, partial curve]
[9]; HiBiT
  Potency: inconclusive: 17.6 µM [inhibitor, partial curve]
[9]; Viability, at 45.9 µM (top of the series)
  activity change, negative = inhibition: inactive: -24%
[10]
  Potency: inconclusive: 31.6 µM [cytotoxic, partial curve, poor fit]
[11]
  Potency: inconclusive: 28.2 µM [cytotoxic, partial curve, poor fit]
[12]
  Potency: inconclusive: 22.4 µM [cytotoxic, partial curve, poor fit]
[13]
  Potency: inconclusive: 39.8 µM [cytotoxic, single point]

## COc1cc2c(Nc3ccc(Br)cc3F)ncnc2cc1OCC1CCN(C)CC1
[1]
  Potency: active: 18.7 µM
[2]
  Potency: inconclusive: 29.1 µM [inhibitor, single point]
[3]
  Potency: inconclusive: 105 nM [inhibitor, full curve, poor fit] and active: 7.31 µM
[4]
  Potency: inconclusive: 18.4 µM [inhibitor, single point]
  max response: inactive: -19.6%
[14]
  Potency: active: 5.9 µM and active: 5.17 µM
  outcome: inactive
[5]
  Potency: inconclusive: 33.2 µM [inhibitor, single point]
[7]
  Potency: active: 20.9 µM
[8]
  Potency: inconclusive: 20.9 µM [inhibitor, partial curve]
[10]
  Potency: active: 22.4 µM
[11]
  Potency: inactive and inconclusive: 28.2 µM [cytotoxic, partial curve, poor fit]
[12]
  Potency: inconclusive: 22.4 µM [cytotoxic, partial curve, poor fit]
[13]
  Potency: inconclusive: 39.8 µM [cytotoxic, single point]
[15]
  Potency: inactive and inconclusive: 31.6 µM [cytotoxic, single point]

## O=C(CCCCCCC(=O)Nc1ccc([C@H]2O[C@@H](CSc3nc(-c4ccccc4)c(-c4ccccc4)o3)C[C@@H](c3ccc(CO)cc3)O2)cc1)NO
[1]
  Potency: active: 18.7 µM
  max response: inactive: -17.1%
[3]
  Potency: active: 20.9 µM
[16]
  Potency: active: 23.5 µM
[8]
  Potency: active: 7.43 µM
[10]
  Potency: inconclusive: 39.8 µM [cytotoxic, single point]
[13]
  Potency: inactive

## CN(C)CCCN1c2ccccc2Sc2ccc(Cl)cc21
[1]
  Potency: inconclusive: 18.8 µM [inhibitor, partial curve]
[2]
  Potency: inconclusive: 9.44 µM [inhibitor, partial curve, poor fit]
[3]
  Potency: inconclusive: 33.5 µM [inhibitor, single point]
[4]
  max response: inactive: -6.48%
[16]
  Potency: inconclusive: 21.1 µM [inhibitor, single point]
[5]
  Potency: active: 23.7 µM
[6]
  Potency: inconclusive: 26.6 µM [inhibitor, single point]
[17]
  Potency: active: 12.6 µM
[10]
  Potency: inconclusive: 39.8 µM [cytotoxic, partial curve, poor fit]
[11]
  Potency: inconclusive: 39.8 µM [cytotoxic, single point]
[12]
  Potency: inconclusive: 39.8 µM [cytotoxic, single point]
[13]
  Potency: inconclusive: 35.5 µM [cytotoxic, single point]
[15]
  Potency: inconclusive: 31.6 µM [cytotoxic, single point]

## O=C(NCC1CN(c2ccc(N3CCOCC3=O)cc2)C(=O)O1)c1ccc(Cl)s1 (configuration not stated)
[1]
  Potency: inconclusive: 5.31 µM [inhibitor, single point] and inconclusive: 29.1 µM [inhibitor, single point]
[2]
  Potency: inconclusive: 29.9 µM [inhibitor, single point]
[3]
  Potency: inconclusive: 32.6 µM [inhibitor, single point]
[4]
  Potency: inconclusive: 9.35 µM [inhibitor, single point]
[14]
  Potency: inconclusive: 23.1 µM [inhibitor, single point]
[6]
  Potency: inactive
[8]
  Potency: inconclusive: 33.5 µM [inhibitor, single point]
[12]
  Potency: inactive
